The values below come from the supplement of paper PMC11417369.

The list shows a part of the results.

The subject of this test is PF3D7_0420300 AP2 domain 1 (GST-tagged). In words: gcPBM binding intensity (ln(normalized median fluorescence intensity)); higher = stronger DNA binding. Summed up: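 Each value is the highest Masliner-normalised natural-log median intensity across replicate spots of either orientation of a probe. The probes were primer-extended double-stranded 36-bp intergenic genomic sequences on an Agilent 4 × 180k array, alongside negative controls, exposed for 1 h to GST-tagged P. falciparum DNA-binding domains expressed in E. coli. Bound protein was picked up with Alexa488 anti-GST antibody and scanned at 488 nm.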
As for “TACCCTCGTATATATATACACACTAAAATACAGACA [CACACA_site4154]”, the “gcPBM binding intensity (ln)” value was found to be 9.53.

In the case of “ATTCATTCATATGTTACACACACACCCACCCATAAA [CACACA_site9066]”, the “gcPBM binding intensity (ln)” value was 10.2.

For “AATTTATGTTTTAAAAGTACTTTTCTAATTTATAAA [XGTACX_site1593]”, the “gcPBM binding intensity (ln)” value is 9.22. The value for “TATGTACAGACATATACACACCTCTATAATCTATAT [CACACA_site6482]” was 9.52; that for “CTAAAGTAAATTTAAGCACACACAACGAATTTTTAT [CACACA_site8599]” was 9.72. Under “CATTTTTACAACGTTGCACACTTCAAAAGGTTTACA [CACACA_site2760]” stands 9.32. Consider “TGTTTATACAATATTTGTACATATATTTTTATTTTT [XGTACX_site4104]”, for which the “gcPBM binding intensity (ln)” value is 9.23. Regarding “TTTTAAATAAAAAAATTAAATTAAAATATATAAAAA [XGTACX_negctrl_site490]”, the “gcPBM binding intensity (ln)” value was found to be 8.82. Turning to “TATAAAAAAAAAAAAAGTACTTAAATATAAATAAAT [XGTACX_site5052]”, the “gcPBM binding intensity (ln)” value came out at 9.23.

Turning to “GATACTCTCTTTTAATGTACAAAATTTTAAAAATTA [XGTACX_site1781]”, the “gcPBM binding intensity (ln)” value stood at 9.08. Under “GTTCCATGAGTATATACATGCATATATCTAGTTTAT [TGCATGCA_site388]” stands 9.36; under “ATATATATATATAAAAGTACTTATTTTTATTTACAT [XGTACX_site4299]”, 9.19. Take “TAAAATAAAAATTTATGTACACATAAAAAAACAAAA [XGTACX_site1112]”: the “gcPBM binding intensity (ln)” value was 9.33. Regarding “GAGAGTACCTATATTGCATGCAGACTTTTTAAATAT [TGCATGCA_site564]”, the “gcPBM binding intensity (ln)” value turned out to be 9.38. The value for “TTTTTTTTTTTTTGTAGTACATTATGTATATTTTTA [XGTACX_site7810]” was 9.23.

As to “TTAATAAGAGAGCAATAGGTGGACTGTTTCTTTTAT [CACACA_negctrl_site1239]”, the “gcPBM binding intensity (ln)” value was determined as 9.22. As to “GTTAAAATAATATGGTGTACAAATATATAAGTTCAT [XGTACX_site3262]”, the “gcPBM binding intensity (ln)” value was 9.46. Under “ATAAGATTAAACATTGCACACAGAAATATATTTTCT [CACACA_site8743]” stands 9.53. With “CCTATATAATATATTTGTACTTAATAATTAAAGTGT [XGTACX_site5151]”, the “gcPBM binding intensity (ln)” value amounted to 9.17. In the case of “TATATATATATATATTGTACATATGTAACCTTTTAA [XGTACX_site3914]”, the “gcPBM binding intensity (ln)” value is 9.08. Regarding “TTTTTTAGATTACATAAATATAAATATAAATATATA [GTGCAC_negctrl_site459]”, the “gcPBM binding intensity (ln)” value worked out at 8.7.

Take “TCAACTATCAATATAGTGCATTTTTTTTGGAAAACC [GTGCAC_site9927]”: the “gcPBM binding intensity (ln)” value came to 9.02. As to “TATCAAAATTAGTATACACACAAAATTAATCAAATA [CACACA_site7117]”, the “gcPBM binding intensity (ln)” value is 9.5. Under “TTTTTATAGGTAAAAACACACGCTAAAAATAATTAA [CACACA_site3731]” stands 9.13; under “CATTTTGTTTTAAAGTGTACATTATGTAATATAAAA [XGTACX_site647]”, 8.99; under “ATTTATATTACCCTTGCATGTAGGTGCAATTTTTTT [TGCATGCA_site757]”, 9.43.

On to “TTTATAATTTATATCACACACATATATATATAGTAA [CACACA_site8]”, for which the “gcPBM binding intensity (ln)” value came out at 9.46. With “AAATAAATAAATAAATAAACAAATATGTATAAATGG [XGTACX_negctrl_site153]”, the “gcPBM binding intensity (ln)” value is 9.48. The value for “AATAAATATATATTCACACACAAACATATATATATA [CACACA_site4023]” was 9.71; that for “AGGTACTTTTTTAAAACACACATATAATAAATACAC [CACACA_site4730]” was 9.58.

For “ATTGGTTCCCCTCTCTTTTCAATATATTTTTTTTTT [XGTACX_negctrl_site259]”, the “gcPBM binding intensity (ln)” value was 9.63. As to “ATAAAGAATATAAATACACACTTAAATATAGATTAT [CACACA_site7804]”, the “gcPBM binding intensity (ln)” value came out at 9.56. For the sequence “TTCAAATGATTTATGTGTACATAAAATTATTTTTTA [XGTACX_site107]”, the “gcPBM binding intensity (ln)” value was 8.99. Regarding “GATATAGGGCGTATGTTAATCGTGAAAGAGTGTCTT [GTGCAC_negctrl_site102]”, the “gcPBM binding intensity (ln)” value is 9.19.

For “AAAAAATTAAAAATCACACATAAATATATATAAAAA [CACACA_site4192]”, the “gcPBM binding intensity (ln)” value amounted to 9.48. “TAATGAAGCTTATGCACACGTTCATTATTTATATTA [CACACA_site3219]”: the “gcPBM binding intensity (ln)” value was 9.34. Take “ATATTACAGTACAATACATGCATATGGAAAAAAAAA [TGCATGCA_site72]”: the “gcPBM binding intensity (ln)” value worked out at 9.34.

With “ATAAAATTTATGACTTGTACATGTAAATAAAATATA [XGTACX_site762]”, the “gcPBM binding intensity (ln)” value came to 9.14.

“TTTAAATATATATATTGTACAAAAAAAAATAATAAA [XGTACX_site4759]”: the “gcPBM binding intensity (ln)” value amounted to 9.17. On to “TGTAGAACTCAATATTGTACATTATATAAAATGGGA [XGTACX_site3857]”, for which the “gcPBM binding intensity (ln)” value came out at 9.23. Regarding “ATATATATATATTGTACACACATTTATGCATATATA [CACACA_site5738]”, the “gcPBM binding intensity (ln)” value turned out to be 9.69. As for “TTTTTTTGCATTTCATGTACATATATTGAGCTTAAA [XGTACX_site8485]”, the “gcPBM binding intensity (ln)” value came out at 9.14. “CTTCTTGTAAAATTTGCATGTAATTAAAAGAGAATG [TGCATGCA_site484]”: the “gcPBM binding intensity (ln)” value was determined as 8.94.

“TTCCCTATCTTTTCAGTGCATTTTGTTTCCTACCTT [GTGCAC_site9813]”: the “gcPBM binding intensity (ln)” value turned out to be 9.57.
